From PubChem BioAssay AID720708 (National Center for Advancing Translational Sciences (NCATS), 2013)
Out of some 360,000 compounds screened, about 660 (0.18%) were called active. The shares of active, inactive and inconclusive entries below differ from those in the screen. Calls come from the whole dose curve; as a rule, active = well fitted inhibition curve with a large enough effect; inconclusive = small, poorly fitted or top-dose-only effect; inactive = no such curve, though single readings can be large or run the other way. No potency is given beside an inconclusive call; the fits are too rough.

The molecules below were run against Rap guanine nucleotide exchange factor 4 (Homo sapiens) (UniProt Q8WZA2) (assay: qHTS for Antagonist of cAMP-regulated guanine nucleotide exchange factor 2 (EPAC2): primary screen). Settings: EPAC2 GEF exchange of Rap1B-BODIPY-GDP, fluorescence; series mostly up to 114 µM.
Sequence of UniProt Q8WZA2 (Q8WZA2 whole entry, looked up): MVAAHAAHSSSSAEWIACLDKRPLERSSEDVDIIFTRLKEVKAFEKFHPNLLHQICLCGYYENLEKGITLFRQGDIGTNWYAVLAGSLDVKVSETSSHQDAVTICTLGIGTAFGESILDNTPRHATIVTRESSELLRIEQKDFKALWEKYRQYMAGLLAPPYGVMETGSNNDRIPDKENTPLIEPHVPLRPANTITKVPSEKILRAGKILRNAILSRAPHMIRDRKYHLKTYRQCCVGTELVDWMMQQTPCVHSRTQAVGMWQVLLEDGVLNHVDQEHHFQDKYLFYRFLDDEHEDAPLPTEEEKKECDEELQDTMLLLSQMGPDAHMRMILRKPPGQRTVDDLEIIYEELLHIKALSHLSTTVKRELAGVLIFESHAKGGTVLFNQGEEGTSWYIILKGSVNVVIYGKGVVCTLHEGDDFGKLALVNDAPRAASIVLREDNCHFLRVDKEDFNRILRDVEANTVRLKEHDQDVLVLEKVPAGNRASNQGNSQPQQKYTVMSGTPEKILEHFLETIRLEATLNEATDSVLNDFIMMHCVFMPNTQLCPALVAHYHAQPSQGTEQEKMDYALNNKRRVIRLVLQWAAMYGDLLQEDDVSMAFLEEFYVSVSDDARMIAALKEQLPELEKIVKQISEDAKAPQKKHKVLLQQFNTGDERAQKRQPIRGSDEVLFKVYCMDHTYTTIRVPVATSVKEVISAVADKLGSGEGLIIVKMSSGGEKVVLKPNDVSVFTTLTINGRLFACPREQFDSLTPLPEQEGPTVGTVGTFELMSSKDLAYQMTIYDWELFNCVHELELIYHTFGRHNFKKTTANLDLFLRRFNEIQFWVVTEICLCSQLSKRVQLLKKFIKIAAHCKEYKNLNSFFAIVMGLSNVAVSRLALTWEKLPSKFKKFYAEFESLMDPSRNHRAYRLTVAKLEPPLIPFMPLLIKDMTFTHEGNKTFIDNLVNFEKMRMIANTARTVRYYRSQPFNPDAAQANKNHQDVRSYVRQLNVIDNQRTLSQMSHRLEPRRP
Note: nearly all actives have a fitted effect of over 45% in size.
Potency is the fitted concentration of half-maximal effect; tags give direction and shape of the fitted curve.

| Structure (SMILES) | Potency |
| --- | --- |
| Cc1cc(Cl)c2oc(C(=O)N(CCO)Cc3ccccc3)c(C)c2c1 | inconclusive [inhibitor, partial curve] |
| O=C(CSc1ccc(F)cc1)Nc1ccc(N2CCOCC2)cc1 | inconclusive [inhibitor, partial curve] |
| CCCCSc1nc(C)cc(C)c1S(=O)(=O)c1ccccc1C | inconclusive [inhibitor, partial curve] |
| CCOc1cnc(-c2c(-c3ccccc3Cl)noc2C)o1 | inconclusive [inhibitor, partial curve] |
| OC(CSc1c(Cl)cccc1Cl)CN1CCN(c2ccc(F)cc2)CC1 (configuration not stated) | inconclusive [inhibitor, partial curve] |
| Oc1cccc(NC(=S)Nc2ccc(SC(F)F)cc2)c1 | inconclusive [inhibitor, single point] |
| COc1ccc(S(=O)(=O)CC(=O)c2cc3cccc(C)c3oc2=O)cc1 | inconclusive [inhibitor, partial curve] |
| Cc1cccc(Sc2ccc([N+](=O)[O-])cn2)c1 | inconclusive [inhibitor, single point] |
| CC1COc2ccccc2N1S(=O)(=O)c1cc(Cl)ccc1Cl (configuration not stated) | inconclusive [inhibitor, single point] |
| CC(=O)N1N=C(N)SC1c1ccc(Cl)c(Cl)c1 (configuration not stated) | inconclusive [inhibitor, full curve] |
| OC1(c2ccccc2)CC(c2ccccc2)c2ccccc2O1 (configuration not stated) | inconclusive [inhibitor, full curve] |
| Cc1ccc(S(=O)(=O)N2[C@@H](c3cccc(Cl)c3)C(C(=O)O)=CC[C@H]2c2ccc(Cl)c(Cl)c2)cc1 | inconclusive [inhibitor, partial curve] |
| CCOc1cc(/C=N/NC(=O)CSc2nncn2C)ccc1OC(=O)c1ccc(Cl)cc1 | inconclusive [inhibitor, single point] |
| CCN(C(=O)COC(=O)C1CCN(S(=O)(=O)c2ccc3c(c2)OCCO3)CC1)C1CCCCC1 | inactive |
| NS(=O)(=O)c1cc(C2(O)NC(=O)c3ccccc32)ccc1Cl (configuration not stated) | inactive |
| COc1ccc2c(c1OC)C(=O)OC2Nc1nc(-c2cc3cc(Br)ccc3oc2=O)cs1 (configuration not stated) | inconclusive [inhibitor, partial curve] |
| CC(C)(C)NC(=O)C(C1CC1)n1c(=O)c(-c2ccco2)nc2ccccc21 (configuration not stated) | inactive |
| O=C(Nc1nnc(-c2ccc(Cl)cc2)o1)Nc1ccccc1Cl | inactive |
| O=c1c2ccccc2nnn1COc1ccc(Cl)cc1Br | inactive |
| N#CC1=C(N)Oc2cc(N)ccc2C1c1ccc(F)cc1F (configuration not stated) | inconclusive [inhibitor, partial curve] |
| CCCC[C@@H]1CNC(=O)C(=O)N1CCc1cccc(F)c1 | inconclusive [inhibitor, partial curve, poor fit] |
| COc1ccccc1CCC(=O)OCC(=O)Nc1cc(C)nn1-c1ccccc1 | inactive |
| Cc1c(C(=O)O)cccc1-n1c(C)cc(/C=N/Nc2ccc([N+](=O)[O-])cn2)c1C | inconclusive [inhibitor, partial curve] |

| Structure (SMILES) | Potency |
| --- | --- |
| Cc1ccc(C)c(N2CCN(C(=O)Cc3c(C(=O)O)[nH]c4ccc(Cl)cc34)CC2)c1 | inconclusive [inhibitor, partial curve] |
| O=C(COc1ccccc1Cl)Nc1ccccc1C(=O)N1CCOCC1 | inactive |
| Cc1ccc(S(=O)(=O)N2[C@@H](c3ccccc3)C(C(=O)O)=CC[C@H]2c2ccc(C(C)C)cc2)cc1 | inconclusive [inhibitor, full curve, poor fit] |
| Cc1ccc(S(=O)(=O)Nc2ccc3ccccc3c2[N+](=O)[O-])cc1 | inconclusive [inhibitor, partial curve] |
| O=[N+]([O-])c1ccccc1NCc1c(O)ccc2ccccc12 | inconclusive [inhibitor, partial curve] |
| CCOc1ccc(C(=S)NC2CCCCC2)cc1OCC | inactive |
| Fc1cccc(Cc2c(C3CCCCC3)nc3ccc(Cl)cn23)c1 | inconclusive [inhibitor, partial curve] |
| Cc1nc(N2CCCCC2C)c2c(C)c(C(=O)Nc3cccc(C(F)(F)F)c3)sc2n1 (configuration not stated) | inconclusive [inhibitor, single point] |
| COc1ccc(OC)c(/C=C/c2ccnc3ccccc23)c1 | inconclusive [inhibitor, partial curve] |
| C1=C(c2ccc(-c3ccccc3)cc2)Nc2ncnn2C1c1ccco1 (configuration not stated) | inactive |
| Nc1ccc(Oc2cc(N)cc(Oc3ccccc3)c2)cc1 | inconclusive [inhibitor, partial curve] |
| CCOC(=O)C1(C#N)Cc2ccccc2C1 | inactive |
| CC(=O)N1CCCN(Cc2cn(-c3ccc(C)cc3)nc2-c2cccc(C)c2)CC1 | inconclusive [inhibitor, single point] |
| O=C(O)c1cccc(NS(=O)(=O)c2ccc(Oc3ccc(S(=O)(=O)Nc4cccc(C(=O)O)c4)cc3)cc2)c1 | inconclusive [inhibitor, partial curve] |
| COc1ccc(/C=C2/CCCC(C(=O)C(F)(F)F)=C2O)cc1OC | inconclusive [inhibitor, partial curve] |
| COc1ccc(CC(=O)Oc2ccc(C)cc2Br)cc1OC | inconclusive [inhibitor, partial curve] |
| CN(C)c1ccc(C(=O)c2ccc(N(C)C)c3ccccc23)cc1 | inconclusive [inhibitor, partial curve] |
| Cc1ccc(-c2cc(C(=O)NCc3ccco3)c3ccccc3n2)o1 | inactive |
| COC(=O)C1CN(C(=O)C(C)Oc2ccc(C(C)C)cc2)c2ccccc2O1 (configuration not stated) | inconclusive [inhibitor, partial curve] |
| COc1ccc(CNC(=O)c2cccc3c(-c4cccnc4)coc23)cc1OC | inconclusive [inhibitor, single point] |
| CCc1noc(C)c1C(=O)Nc1nc2c(C)cc(C)cc2s1 | inactive |
| O=C(Nc1cc(C(F)(F)F)ccc1N1CCCCC1)C1=COCCO1 | inconclusive [inhibitor, partial curve] |
| CC(C)c1ccc(S(=O)(=O)Nc2ccc3c(c2)OCO3)cc1 | inconclusive [inhibitor, partial curve] |

| Structure (SMILES) | Potency |
| --- | --- |
| CCOC(=O)N1CCN(C(=O)CNS(=O)(=O)c2cccs2)CC1 | inactive |
| NC1=C(Br)C(=O)c2ncccc2C1=O | inconclusive [inhibitor, single point] |
| CC(=O)NC(c1ccco1)c1cc(Cl)c2ccc(Cl)nc2c1O (configuration not stated) | inconclusive [inhibitor, partial curve] |
| COC(=O)c1ccc2nc(-c3cccc(Cl)c3)c(Cc3ccsc3)n2c1 | inconclusive [inhibitor, full curve] |
| Cc1ccccc1CN1[C@@H](Cc2ccccc2)COCCS1(=O)=O | inconclusive [inhibitor, partial curve] |
| CCC1COC(c2cccn2Cc2ccccc2Cl)=N1 (configuration not stated) | inconclusive [inhibitor, partial curve] |
| NS(=O)(=O)c1ccc(CCNC(=O)c2cccc([N+](=O)[O-])c2)cc1 | inconclusive [inhibitor, single point] |
| CCOc1ccc(NCc2cc3c(C(C)(C)C)nn(-c4ccccc4)c3[nH]c2=O)cc1 | inconclusive [inhibitor, full curve] |
| O=S(=O)(c1ccc(Br)cc1)N1CCN(c2ccc3nnc(-c4ccccc4)n3n2)CC1 | inactive |
| CCC(C(=O)Nc1cc(Cl)ccc1OC)c1ccccc1 (configuration not stated) | inconclusive [inhibitor, full curve] |
| CCCCn1c(SC(C)C(=O)c2ccc(OC)cc2)nc2cc(S(N)(=O)=O)ccc21 (configuration not stated) | inconclusive [inhibitor, partial curve] |
| CCCc1nc2c(=O)n(C)c(=O)nc-2n(C)n1 | inconclusive [inhibitor, full curve, poor fit] |
| COc1ccc(C(NC(=O)C(C)C)c2ccc3cccnc3c2O)cc1 (configuration not stated) | inconclusive [inhibitor, full curve] |
| O=C(NCC1CCCO1)c1ccc(C(=O)NCC2CCCO2)cc1 (configuration not stated) | inconclusive [inhibitor, single point] |
| CCc1nc2ccc(C(=O)Nc3ccc(NC(C)=O)cc3)cn2c1N(C)CCC(C)C | inconclusive [inhibitor, partial curve] |
| COc1ccccc1CNC(=O)CSc1ccc(-c2cccs2)nn1 | inconclusive [inhibitor, partial curve] |
| Cc1nc(/C(N)=N/OC(=O)c2ccccc2Cl)c(C(F)(F)F)o1 | inactive |
| O=C(N/N=C/c1ccccc1OC(=O)c1ccc2c(c1)OCO2)c1cccc(F)c1 | inactive |
| C=CCn1c(SCC(=O)Nc2sc3c(c2C#N)CCC(C)C3)nc2cc(C(=O)O)ccc2c1=O (configuration not stated) | inactive |
| Cc1ccc(S(=O)(=O)N2[C@@H](c3cccc(Cl)c3)C(C(=O)O)=CC[C@H]2c2ccc(Cl)cc2)cc1 | inconclusive [inhibitor, partial curve] |
| COc1ccc(C(C)(O)c2nc(-c3ccccc3)cs2)cc1 (configuration not stated) | inconclusive [inhibitor, partial curve] |
